In PubChem BioAssay AID588855 (National Center for Advancing Translational Sciences (NCATS), 2011):
About 5,000 (1.2%) of roughly 410,000 compounds were called active. A call without a number means that no potency is given here. Inconclusive results, whose numbers are uncertain, are shown with a selection of clear calls. Calls follow the shape of the dose curve; as a rule, active = well fitted inhibition curve with a large enough effect; inconclusive = small, poorly fitted or top-dose-only effect; inactive = no such curve, though single readings can be large or run the other way. Potencies beside an inconclusive call are fits to weak or partial responses and may not hold up.

Assay: qHTS for Inhibitors of TGF-b; also: nearly all actives have a fitted effect of over 65% in size
Details: HepG2 CAGA-GFP TGF-b/SMAD3 reporter, GFP fluorescence, 18 h, TGF-beta stimulated, 500 pg/mL final; series mostly up to 46.1 µM
Method in brief: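 Per well, imaged GFP fluorescence of HEPG2 CAGA-GFP cells gives the signal; cells get compound, then TGF-beta (500 pg/mL final), 18 h at 37 degrees C; %Activity versus -TGF-beta and +DMSO controls.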
Potency is read from the fitted curve at half-maximal effect; tags tell the direction and shape of the fitted curve.

Structure (SMILES) | Potency
Cc1cc([N+](=O)[O-])nn1CCCC(=O)NCc1ccc(F)cc1 | inactive
Cc1ccc(CNS(=O)(=O)c2ccc(Cl)s2)cc1 | inactive
NC(=S)NNC(=O)/C(=C/c1ccc(Br)cc1)NC(=O)c1ccccc1 | inconclusive: 20 µM [inhibitor, single point]
CCOc1ccc(CN(C)C(=O)[C@H](Cc2ccccc2)NC(=O)OCc2ccccc2)cc1OC | inactive
O=C(c1ccc(Cl)c([N+](=O)[O-])c1)N1CCN(S(=O)(=O)c2ccc(Cl)cc2)CC1 | active: 10 µM
CCN(CC)C(=O)Cn1c(SCCOc2ccc(Cl)cc2)nc2ccccc21 | inconclusive: 11.2 µM [inhibitor, partial curve, poor fit]
Cc1ccnc(NC(=O)CCC(=O)c2cccs2)c1 | inactive
COc1cccc(NC(=O)Nc2ccc3nsnc3c2)c1 | inconclusive: 22.4 µM [inhibitor, single point]
COCCNc1nc(NCc2ccc(C(C)C)cc2)c2sccc2n1 | inconclusive: 14.1 µM [inhibitor, single point]
C/C(=C\C(=O)Nc1cscc1C)C(=O)O | inconclusive: 7.08 µM [inhibitor, full curve, poor fit]
CC(=O)N1C(Nc2ccc(Cl)cc2)CCN1c1ccccc1 (configuration not stated) | inactive
COc1ccccc1N(Cc1ccccc1)S(=O)(=O)c1cccc(C(=O)N2CCCCC2)c1 | inconclusive: 20 µM [inhibitor, single point]
CCN(/N=C/C=C/c1ccccc1)c1cc(=O)n(C)c(=O)[nH]1 | inactive
CC(=O)c1ccc(-n2nnnc2SCC(=O)Nc2sc(C)c(C)c2C#N)cc1 | inconclusive: 10 µM [inhibitor, partial curve, poor fit]
CSCC[C@H](NC(=O)N1CCn2c1nc1ccccc12)C(=O)NCc1ccc(F)cc1 | inconclusive: 11.2 µM [inhibitor, partial curve, poor fit]
CC(=O)/C(=N\Nc1cccc(Cl)c1)Sc1cccc2cccnc12 | inactive
Cc1nn(C)c(C)c1CNC(=O)c1cnn2c1NC(c1ccccc1)CC2C(F)(F)F (configuration not stated) | inactive
CNC(=O)C(=O)NCC1OCCCN1S(=O)(=O)c1ccc(F)cc1C (configuration not stated) | inactive
CC(C(=O)O)n1nc(-c2ccccc2)c2ccccc21 (configuration not stated) | inactive
C=CCN(c1ccccc1Cl)S(=O)(=O)c1cc(C(=O)N2CCCC2)ccc1Cl | inactive
NC(=O)c1ccc(NC(=O)CSc2nnc(-c3cccnc3)n2Cc2ccco2)cc1 | inactive
CCc1ccc(NC(=O)CC2C(=O)N(c3ccc(Cl)cc3)C(=O)N2Cc2cccs2)cc1 (configuration not stated) | inconclusive: 20 µM [inhibitor, single point]
